Measured values taken from PubChem BioAssay AID651820 (National Center for Advancing Translational Sciences (NCATS), 2012).
Screen size: about 340,000 compounds; about 12,000 (3.5%) were called active. The inconclusive results got no clear call from the source; some entries with a clear call stand among them for comparison. Calls follow the shape of the dose curve; as a rule, active = well fitted inhibition curve with a large enough effect; inconclusive = small, poorly fitted or top-dose-only effect, or another doubt; inactive = no such curve, though single readings can be large or run the other way. No potency is given beside an inconclusive call; the fits are too rough.

Experiment: qHTS Assay for Inhibitors of Hepatitis C Virus (HCV)
Details: Huh7.5.1 HCVcc-Cre (HCVcc is cell-culture hepatitis C virus) infection, luciferase reporter, 44 h; activity change, negative = inhibition: at 41.8 µM (top of the series) unless noted
Procedure, shortened: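 After 44 h co-culture of compound, cells and HCVcc-Cre (~0.5 moi), substrate is added for 15 min at room temperature and luciferase measured over 15 sec. Cells were seeded at 1,000/well and pre-cultured 4 h.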
% is scaled to controls: 0 for no effect and ±100 for the full control effect; potency is read from the fitted curve at half-maximal effect; tags tell the direction and shape of the fitted curve.

Structure (SMILES) | Potency | activity change, negative = inhibition
O=C(/C=C/c1ccnc2ccccc12)c1cccs1 | inconclusive [inhibitor, single point] | 
CN1CCN(c2ccc(CNC(=O)c3cc4ccccc4o3)cc2)CC1 | inconclusive [inhibitor, single point] | 
O=C(Nc1cccc(Br)c1)C1CC(=O)N(C2CCCC2)C1 (stereo not given) |  | inactive: 4.1%
Cn1nccc1C(=O)NC1CCN(Cc2ccccc2)CC1 |  | inactive: 4.88%
Cc1c(C(=O)N2CCOCC2)sc(NC(=O)c2ccc([N+](=O)[O-])cc2)c1C#N |  | inactive: -16%
CCOC(=O)c1cn[nH]c1NC(=S)Nc1ccc(Cl)cc1 | inconclusive [inhibitor, partial curve] | 
Cc1cc(Cn2nc(-c3ccccc3)cc2C(=O)NCc2cccc(Br)c2)on1 | active: 5.62 µM | 
CC1CCc2nc(NC(=O)CCSc3ccccc3)sc2C1 (stereo not given) |  | inactive: 5.03%
Cc1sc2ncn(CC(=O)NCC3COc4ccccc4O3)c(=O)c2c1S(=O)(=O)N1CCCCC1 (stereo not given) |  | inactive: 10.9%
CCOC(=O)c1c(C)[nH]c(C(=O)CSc2nnc(C3CC3)n2N)c1C | inconclusive [inhibitor, partial curve] | 
CCOc1ccc(S(=O)(=O)NCCC(=O)N2CCN(c3ccc(OC)cc3)CC2)cc1 | inconclusive [inhibitor, partial curve] | 
COc1cc(/C=N/NC(=O)Nc2cccc3nsnc23)cc(OC)c1OC | inconclusive [inhibitor, full curve] | 
CCOc1ccc(NS(=O)(=O)c2ccc(C(=O)N(C)Cc3cccc(OC)c3OC)cc2)cc1 | active: 12.6 µM | 
Cc1ccc(C(=O)/C=C/Nc2ccccn2)cc1 | inconclusive [inhibitor, partial curve] | 
CCC(C)c1ccc(NC(=O)c2[nH]c(C)c(C(C)=O)c2C)cc1 (stereo not given) | inconclusive [inhibitor, partial curve] | 
N#Cc1cccc(NC(=O)NCCc2c[nH]c3ccccc23)c1 | inconclusive [inhibitor, partial curve] | 
COc1ccc(CCNC(=O)C(NS(=O)(=O)c2cccc3nsnc23)C(C)C)cc1OC (stereo not given) |  | inactive: -2.08%
COc1ccc(CCNC(=O)C2CCN(c3ccc(N4CCOCC4)nn3)CC2)c(OC)c1 | inconclusive [inhibitor, full curve] | 
O=C(CCN1C(=O)c2ccccc2S1(=O)=O)N1CCN(c2ccccc2F)CC1 | inconclusive [inhibitor, single point] | 
NC(=Nc1ccccc1)NN=Cc1c[nH]c2ccccc12 | inconclusive [inhibitor, single point] | 
Cc1c(C(=O)NC(=S)Nc2ccc(NC(=O)c3cccs3)cc2)oc2ccccc12 |  | inactive: -12.9%
CC(=O)Nc1ccccc1NC(=O)CC(C)(C)C | inconclusive [inhibitor, single point] | 
Cc1cc(NC2CCCCC2)nc(NCc2ccccc2)n1 | inconclusive [inhibitor, full curve] | 
CCOC(=O)c1nc(Nc2cccc(C)c2)c2ccccc2n1 | inconclusive [inhibitor, partial curve] | 
CCCn1nc(C(=O)Nc2nc(-c3ccccn3)cs2)c2ccccc2c1=O | active: 5.01 µM | 

Structure (SMILES) | Potency | activity change, negative = inhibition
CCCCn1c(SCc2cccnc2)nc2c1c(=O)n(C)c(=O)n2C | inconclusive [inhibitor, partial curve] | 
CN(c1ccccc1)S(=O)(=O)c1ccc(C(=O)NCC(c2ccco2)N2CCCCC2)cc1 (stereo not given) | inconclusive [inhibitor, partial curve] | 
NNC(=O)C(Cc1c[nH]c2ccccc12)NC(=O)c1ccccc1 (stereo not given) |  | inactive: 5.15%
COc1ccc(C(=O)Nc2nc(C)cs2)cc1S(=O)(=O)N1CCCC1 |  | inactive: 4.68%
COc1ccc(N2C(=O)/C(=C/c3cccs3)NC2=S)cc1 |  | inactive: 7.12%
CC(C)CN(CC(C)C)C(=O)Cc1coc2ccc3ccccc3c12 | inconclusive [inhibitor, single point] | 
Cc1nn(C)c(C)c1CNC(=O)Nc1cccc(Cl)c1C |  | inactive: -17%
Cc1cc(C)n(C(=O)CCN2C(=O)c3ccccc3C2=O)n1 |  | inactive: 2.28%
CN1CCN(NC(=O)CSc2ccc(Cl)cc2Cl)CC1 |  | inactive: 5.85%
c1ccc(NC2=Nc3ccccc3CS2)cc1 | inconclusive [inhibitor, partial curve] | 
Cc1cc(NC(=O)CCC(=O)N(c2ccccc2)C(C(=O)NCC2CCCO2)c2cccnc2)no1 (stereo not given) |  | inactive: -12.1%
Cc1ccc(O)c(C(=O)CC(=O)c2ccccc2Cl)c1 | active: 5.01 µM | 
O=C(CSc1nc2ccccc2o1)N1c2ccccc2Sc2ccccc21 | inconclusive [inhibitor, single point] | 
CC1(C)C2CC[C@]3(C)C(CC=C4[C@@H]5C[C@@](C)(CO)[C@@H](O)C[C@]56C[C@@H](OC6=O)[C@]43C)[C@@]2(C)CC[C@@H]1O (stereo not given in full) | active: 1.26 µM | 
CCN(CC)c1nc2ccccc2c(N)c1-c1ccccc1 | inconclusive [inhibitor, single point] | 
CCN(C[C@H]1N[C@@](Cc2ccccc2)(C(=O)OC)[C@H]2C(=O)N(C)C(=O)[C@@H]12)S(=O)(=O)c1ccc(C(F)(F)F)cc1 | inconclusive [inhibitor, single point] | 
COc1cccc(NC(=O)COc2ccccc2C(N)=O)c1 |  | inactive: 4.53%
O=C1CCN(CCc2ccccc2)CCN1[C@H](CSc1ccccc1)c1ccccc1 | inconclusive [inhibitor, single point] | 
Cc1ccccc1-c1nc(CN2CCCC(C(=O)NCCCN3CCOCC3)C2)c(C)o1 (stereo not given) | inconclusive [inhibitor, partial curve] | 
Fc1ccc(NC(=S)Nc2ccc(Cl)cc2Cl)cc1 | inconclusive [inhibitor, single point] | 
Fc1ccc(CSc2ccc(-c3ccco3)nn2)cc1 |  | inactive: -2.83%
CCOc1ccc2nc(N3CCCN(C(=O)Nc4ccccc4C)CC3)c(C#N)cc2c1 | inconclusive [inhibitor, partial curve] | 
OCC1(CCc2ccccc2)CCN(Cc2cc(F)ccc2-n2cccn2)CC1 | inconclusive [inhibitor, single point] | 
Cc1ccc(CNC(=O)c2cc3c(=O)n4ccccc4nc3n(CC3CCCO3)c2=N)cc1 (stereo not given) | inconclusive [inhibitor, full curve] | 
Nc1cnccc1C(=O)O |  | inactive: 12.9%

Structure (SMILES) | Potency | activity change, negative = inhibition
CCCC1=C(C(=O)OCC)C(c2ccc(NC(C)=O)cc2)NC(=O)N1 (stereo not given) | inconclusive [inhibitor, partial curve, poor fit] | 
Cc1cc(NC(c2cccnc2)c2ccc3cccnc3c2O)no1 (stereo not given) | active: 2.51 µM | 
COc1cccc(-c2cc(C(F)(F)F)nc(-n3cc(C)cn3)n2)c1 | active: 10 µM | 
Cc1cc(C)c(NS(=O)(=O)c2ccccc2)c(C)c1 | inconclusive [inhibitor, single point] | 
O=C(CNC(=O)Cc1ccc(Cl)cc1)NCc1ccco1 |  | inactive: 18.3%
CC(C)Nc1nc(NC(C)C)nc(OCCOC(=O)Nc2ccccc2)n1 | inconclusive [inhibitor, partial curve] | 
O=C(NCCc1ccccc1)c1ccccc1SCC(=O)N1CCCC1 |  | inactive: 18%
Cc1noc(C)c1COc1cccc(C(=O)Nc2ccc(OCc3ccccc3)cc2)c1 | inconclusive [inhibitor, partial curve] | 
Cc1cc(C)n2c(SCC(=O)NC3CCCCC3C)nnc2n1 (stereo not given) | inconclusive [inhibitor, partial curve] | 
COc1cccc2c(Nc3ccccc3C)cc(C)nc12 | inconclusive [inhibitor, partial curve] | 
CN(c1ccc(Cl)cc1)c1cc(=O)n(C)c2ccccc12 | active: 10 µM | 
Cc1cc2ccc3ccccc3c2cc1CN(C)C |  | inconclusive: -66.5% [inhibitor]
COc1ccc(Br)cc1CN(C)CC(=O)Nc1cccc(S(=O)(=O)N2CCCC2)c1 | active: 8.91 µM | 
CCN1CCN(C(=S)NC(=O)c2cc(OC)c(OC)c(OC)c2)CC1 |  | inactive: 4.57%
Cc1nn2c(-c3cccc(NC(=O)CSc4nc5ccccc5o4)c3)nnc2c2ccccc12 | inconclusive [inhibitor, partial curve, poor fit] | 
COc1ccccc1C(=O)COC(=O)c1c(-c2ccccc2)noc1C |  | inconclusive: -69.4% [inhibitor]
CCN(C(=O)CSc1nnc(-c2ccc(F)cc2)n1C)C1CCS(=O)(=O)C1 (stereo not given) |  | inactive: -19.2%
COc1cc(OC)cc(C(=O)Nc2nc(CC(=O)NCCc3ccccc3)cs2)c1 | inconclusive [inhibitor, partial curve] | 
Cc1cc(OCC(=O)Nc2cccc(S(=O)(=O)NC3=NCCCCC3)c2)ccc1Cl | inconclusive [inhibitor, partial curve] | 
O=C(CCSc1ccccc1)Nc1ccc(S(=O)(=O)N2CCOCC2)cc1 |  | inactive: 6.99%
OCCn1nc(-c2ccccc2)cc1-c1ccccc1 |  | inactive: -5.69%
CN(c1ccccc1)S(=O)(=O)c1cccc(NC(=O)CC(C)(C)C)c1 | inconclusive [inhibitor, single point] | 
N/C(=N\OC(=O)c1ccccc1Br)c1cccc([N+](=O)[O-])c1 |  | inactive: -9.79%
COC(=O)NC(=S)Nc1ccc(Oc2ccc(Cl)cc2Cl)c(Cl)c1 | inconclusive [inhibitor, partial curve, poor fit] | 
COc1ccc2c(C)c(CC(=O)N3CCN(C(=O)C4COc5ccccc5O4)CC3)c(=O)oc2c1 (stereo not given) | inconclusive [inhibitor, partial curve] | 
